Experimental findings from publication PMC5892938 are described below.

The other results are listed elsewhere or left out. At the low end of the ranking the order means little.

The target of the test is GST-SBP-SLBP (stem-loop binding protein) (UniProt Q14493). Briefly: targeted RNA Bind-n-Seq.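 Note: DESeq read counts versus GST-SBP nonspecific binding control pulldown.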 As to conditions: RBNS binding buffer: 25 mM Tris pH 7.5, 150 mM KCl, 3 mM MgCl2, 0.1% Tween, 0.5 mg/mL BSA, 1 mM DTT; 27 nM protein, 750 pM RNA pool; temperature not stated; high values mean tight binding.
As for “GGUCACGUCUCAAUCAACUCCUAGGAGGGGGGGAAAACCCCUUUACCCUCAACCUCAACAGCUCGCAGUCAAG”, the binding signal (log2 fold change) is -0.192. Consider “GGUCACGUCUCAAUCAACUCUACGGAGGGGGGGAAAACCCCUUUACCCUCAAUUUCAACAGCUCGCAGUCAAG”, for which the binding signal (log2 fold change) stood at 0.215. Turning to “GGUCACGUCUCAAUCAACUCUUUUCCCAGGGAAACCCCUGGCAUACUCAACAGCUCGCAGUCAAG”, the binding signal (log2 fold change) amounted to 0.123.

As to “GGUCACGUCUCAAUCAACUCAAAAGAGGGGGGGAAAACCCCUUUGCCCUCACACUCAACAGCUCGCAGUCAAG”, the binding signal (log2 fold change) was determined as 0.235. Regarding “GGUCACGUCUCAAUCAACUCUUCCCCCAGGGAAAACCCUGGCUAACUCAACAGCUCGCAGUCAAG”, the binding signal (log2 fold change) is -0.19. Take “GGUCACGUCUCAAUCAACUCAUCUCCAGGAGUUUACUCCUGUAUAUUCAACAGCUCGCAGUCAAG”: the binding signal (log2 fold change) is 0.286. Next, “GGUCACGUCUCAAUCAACUCUUCGUCAGGAGUUUCCUCCUGCAAUUUCAACAGCUCGCAGUCAAG”: 0.129. In the case of “GGUCACGUCUCAAUCAACUCUUUUCCCAGGGAAAACCCUGGUUAUGUCAACAGCUCGCAGUCAAG”, the binding signal (log2 fold change) amounted to 0.132. Next, “GGUCACGUCUCAAUCAACUCUUCGUCAGGAGUUUCCUCCUGUUAUCUCAACAGCUCGCAGUCAAG”: -0.00914; “GGUCACGUCUCAAUCAACUCUUAAGAGGGGGGGAAAACCCCUUUACCCUCCAACUCAACAGCUCGCAGUCAAG”: -0.162.

For “GGUCACGUCUCAAUCAACUCUUUCUCCAGGGAAAUCCCUGGUUAUUUCAACAGCUCGCAGUCAAG”, the binding signal (log2 fold change) was -0.133. As to “GGUCACGUCUCAAUCAACUCUUCCUCAGGAGUUUUCUCCUGCAAAUUCAACAGCUCGCAGUCAAG”, the binding signal (log2 fold change) worked out at 0.0483. With “GGUCACGUCUCAAUCAACUCAUCCUCAGGAGUUUGCUCCUGCUAAUUCAACAGCUCGCAGUCAAG”, the binding signal (log2 fold change) worked out at 0.274. With “GGUCACGUCUCAAUCAACUCCCCAGAGGGGGGGAAAACCCCUUUACCCUCCAUGUCAACAGCUCGCAGUCAAG” the figure was -0.37. As for “GGUCACGUCUCAAUCAACUCAAGGUCAGGAGUUUUCUCCUGUUUAUUCAACAGCUCGCAGUCAAG”, the binding signal (log2 fold change) worked out at 0.15. As for “GGUCACGUCUCAAUCAACUCAUUUCCCAGGGAAAUCCCUGGCUAUUUCAACAGCUCGCAGUCAAG”, the binding signal (log2 fold change) was -0.00533. With “GGUCACGUCUCAAUCAACUCUCCAGAGGGGGGGAAAACCCCUUUGCCCUCCAUAUCAACAGCUCGCAGUCAAG” the figure was -0.00577. Next, “GGUCACGUCUCAAUCAACUCAGUCUCAGGAGUUUACUCCUGCUAUCUCAACAGCUCGCAGUCAAG”: 0.184; “GGUCACGUCUCAAUCAACUCAAUUCCAGGAGUUUUCUCCUGCUUAGUCAACAGCUCGCAGUCAAG”: 0.0293; “GGUCACGUCUCAAUCAACUCUUUAGAGGGGGGGAAAACCCCUUUGCCCUCAAUAUCAACAGCUCGCAGUCAAG”: 0.121. “GGUCACGUCUCAAUCAACUCUAAGGAGGGGGGGAAAACCCCUUUACCCUCAUCAUCAACAGCUCGCAGUCAAG”: the binding signal (log2 fold change) came to 0.486. With “GGUCACGUCUCAAUCAACUCUACUCCAGGAGUUUACUCCUGCAUUCUCAACAGCUCGCAGUCAAG” the figure was -0.129; with “GGUCACGUCUCAAUCAACUCAAUCUCCAGGGAAAGCCCUGGUUAUCUCAACAGCUCGCAGUCAAG”, -0.29. With “GGUCACGUCUCAAUCAACUCUCCCGAGGGGGGGAAAACCCCUUUGCCCUCAUUUUCAACAGCUCGCAGUCAAG” the figure was 0.201. With “GGUCACGUCUCAAUCAACUCUCAAGAGGGGGGGAAAACCCCUUUACCCUCCCAAUCAACAGCUCGCAGUCAAG”, the binding signal (log2 fold change) was -0.135. With “GGUCACGUCUCAAUCAACUCAUCUUCCAGGGAAACCCCUGGUUUUCUCAACAGCUCGCAGUCAAG” the figure was 0.0752; with “GGUCACGUCUCAAUCAACUCUACUUCAGGAGUUUCCUCCUGCAUUCUCAACAGCUCGCAGUCAAG”, -0.104. As to “GGUCACGUCUCAAUCAACUCAGUCUCCAGGGAAACCCCUGGCAAUCUCAACAGCUCGCAGUCAAG”, the binding signal (log2 fold change) was -0.0948. On to “GGUCACGUCUCAAUCAACUCUACUCCAGGAGUUUCCUCCUGCAUACUCAACAGCUCGCAGUCAAG”, for which the binding signal (log2 fold change) was found to be 0.0938. In the case of “GGUCACGUCUCAAUCAACUCUCUAGAGGGGGGGAAAACCCCUUUGCCCUCGAAAUCAACAGCUCGCAGUCAAG”, the binding signal (log2 fold change) is 0.342. “GGUCACGUCUCAAUCAACUCAAUCCCAGGAGUUUCCUCCUGUAUUCUCAACAGCUCGCAGUCAAG”: the binding signal (log2 fold change) is 0.164. With “GGUCACGUCUCAAUCAACUCUUUCGCAGGAGUUUUCUCCUGGUAUCUCAACAGCUCGCAGUCAAG” the figure was 0.00473; with “GGUCACGUCUCAAUCAACUCAAUAGAGGGGGGGAAAACCCCUUUACCCUCCCAAUCAACAGCUCGCAGUCAAG”, 0.325; with “GGUCACGUCUCAAUCAACUCUUCCUCAGGAGUUUACUCCUGCAAAUUCAACAGCUCGCAGUCAAG”, -0.2. On to “GGUCACGUCUCAAUCAACUCAAUGGCAGGAGUUUUCUCCUGGAAUCUCAACAGCUCGCAGUCAAG”, for which the binding signal (log2 fold change) is -0.0119.

Regarding “GGUCACGUCUCAAUCAACUCAUCCUCAGGAGUUUUCUCCUGUUUAUUCAACAGCUCGCAGUCAAG”, the binding signal (log2 fold change) is -0.0744.

As for “GGUCACGUCUCAAUCAACUCUAUCGAGGGGGGGAAAACCCCUUUACCCUCACAAUCAACAGCUCGCAGUCAAG”, the binding signal (log2 fold change) is 0.599. “GGUCACGUCUCAAUCAACUCAUCUCCAGGAGUUUACUCCUGUAAUCUCAACAGCUCGCAGUCAAG”: the binding signal (log2 fold change) stood at 0.0247. In the case of “GGUCACGUCUCAAUCAACUCAUAAGAGGGGGGGAAAACCCCUUUACCCUCGUUCUCAACAGCUCGCAGUCAAG”, the binding signal (log2 fold change) was -0.258.

As for “GGUCACGUCUCAAUCAACUCUAUCGAGGGGGGGAAAACCCCUUUGCCCUCAUCAUCAACAGCUCGCAGUCAAG”, the binding signal (log2 fold change) is -0.334. “GGUCACGUCUCAAUCAACUCAUAAGAGGGGGGGAAAACCCCUUUACCCUCGUUUUCAACAGCUCGCAGUCAAG”: the binding signal (log2 fold change) came out at 0.117.

In the case of “GGUCACGUCUCAAUCAACUCUCAAGAGGGGGGGAAAACCCCUUUACCCUCAUUUUCAACAGCUCGCAGUCAAG”, the binding signal (log2 fold change) came to 0.0743. As to “GGUCACGUCUCAAUCAACUCAAUUCCCAGGGAAACCCCUGGCUAAUUCAACAGCUCGCAGUCAAG”, the binding signal (log2 fold change) is -0.0236. For “GGUCACGUCUCAAUCAACUCCAAAGAGGGGGGGAAAACCCCUUUACCCUCCACAUCAACAGCUCGCAGUCAAG”, the binding signal (log2 fold change) is 0.399. “GGUCACGUCUCAAUCAACUCAUUUUCCAGGGAAAACCCUGGCGUUUUCAACAGCUCGCAGUCAAG”: the binding signal (log2 fold change) is -0.0554.

On to “GGUCACGUCUCAAUCAACUCCUUAGAGGGGGGGAAAACCCCUUUACCCUCCACAUCAACAGCUCGCAGUCAAG”, for which the binding signal (log2 fold change) is -0.0998.
